Data from the supplement of paper PMC3334620.
Whole data set: some 33,000 sequences, median “E-score (-0.5 to 0.5)” near -0.053, cut for the highest 2% near 0.37. The list shows a part of the results.

Molecular target: Hap1 (UniProt P0CE41)
Experiment: PBM E-score (8-mer binding enrichment) (E-score (-0.5 to 0.5)); higher = stronger / more preferred TF binding; most listed sequences are background and not binding sites
Conditions: protein concentration: 200 nM; construct: GST-DNA-binding domain
Method in brief: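 For each ungapped eight-base word taken together with its reverse complement, the Universal PBM Analysis Suite assigned an E-score. Binding data came from GST-tagged yeast transcription factors, applied at about 100-200 nM, on universal all-10-mer Agilent arrays made double-stranded by primer extension. Fluorescent anti-GST marked bound protein, and scans were normalised with masliner.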

UniProt P0CE41, sequence (P0CE41 whole entry): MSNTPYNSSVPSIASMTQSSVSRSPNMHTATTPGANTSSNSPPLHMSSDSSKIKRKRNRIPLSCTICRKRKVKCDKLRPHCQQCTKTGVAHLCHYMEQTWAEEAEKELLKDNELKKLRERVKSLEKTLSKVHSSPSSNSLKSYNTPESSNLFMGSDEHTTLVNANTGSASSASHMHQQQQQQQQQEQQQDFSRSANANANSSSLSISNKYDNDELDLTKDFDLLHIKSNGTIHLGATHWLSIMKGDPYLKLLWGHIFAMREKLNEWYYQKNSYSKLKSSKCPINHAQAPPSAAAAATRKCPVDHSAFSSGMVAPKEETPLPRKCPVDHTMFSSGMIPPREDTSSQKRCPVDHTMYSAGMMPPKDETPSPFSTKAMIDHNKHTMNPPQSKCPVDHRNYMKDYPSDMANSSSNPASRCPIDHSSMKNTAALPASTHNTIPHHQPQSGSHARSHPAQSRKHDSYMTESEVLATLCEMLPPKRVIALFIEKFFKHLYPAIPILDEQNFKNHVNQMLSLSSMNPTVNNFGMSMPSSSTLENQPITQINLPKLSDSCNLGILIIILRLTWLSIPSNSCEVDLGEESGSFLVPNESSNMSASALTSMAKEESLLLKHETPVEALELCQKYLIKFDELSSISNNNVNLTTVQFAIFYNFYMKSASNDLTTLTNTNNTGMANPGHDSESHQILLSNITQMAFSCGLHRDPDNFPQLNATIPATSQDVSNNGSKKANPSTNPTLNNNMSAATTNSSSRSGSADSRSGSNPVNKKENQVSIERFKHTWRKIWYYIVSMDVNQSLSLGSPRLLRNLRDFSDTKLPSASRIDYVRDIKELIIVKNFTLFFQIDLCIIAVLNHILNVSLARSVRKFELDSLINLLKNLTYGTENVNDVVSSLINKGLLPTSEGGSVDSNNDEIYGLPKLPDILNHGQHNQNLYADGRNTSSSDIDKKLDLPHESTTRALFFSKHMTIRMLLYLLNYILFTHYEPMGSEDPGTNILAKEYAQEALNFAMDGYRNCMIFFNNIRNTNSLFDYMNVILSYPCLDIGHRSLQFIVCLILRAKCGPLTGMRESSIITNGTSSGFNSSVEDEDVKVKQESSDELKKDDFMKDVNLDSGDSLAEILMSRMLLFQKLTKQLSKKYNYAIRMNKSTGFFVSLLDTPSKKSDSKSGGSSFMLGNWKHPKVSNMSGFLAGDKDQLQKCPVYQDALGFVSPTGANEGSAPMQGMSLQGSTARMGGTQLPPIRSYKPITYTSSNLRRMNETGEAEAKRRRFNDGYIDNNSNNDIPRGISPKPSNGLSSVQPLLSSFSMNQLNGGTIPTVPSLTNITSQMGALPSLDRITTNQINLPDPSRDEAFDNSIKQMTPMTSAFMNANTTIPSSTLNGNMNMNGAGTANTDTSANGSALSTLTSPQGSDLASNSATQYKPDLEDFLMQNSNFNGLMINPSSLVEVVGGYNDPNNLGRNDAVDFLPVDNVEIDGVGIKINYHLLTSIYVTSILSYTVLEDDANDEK

Sequence | PBM E-score
GATTGCGA | 0.166
CATATCAG | -0.155
CGGTTGAC | 0.244
AGATTCTG | -0.14
CGTAAAGA | 0.0556
CAGACCCA | -0.25
CTGCTAGA | -0.089
CGATTGAC | -0.0683
ATACGGGA | 0.128
ACCCGACA | 0.258
CCTATATA | -0.0101
CAAGCTAA | -0.225
ACGCCAGA | -0.204
AGACTCCG | 0.188
CGCGGTGC | 0.0907
AGGGGAGG | 0.0355
ATCCACAT | -0.0411
AAACAGTG | -0.161
CAACTTCG | 0.022
CTTCCTGA | -0.104
AGCGTCCA | -0.157
AATATTTG | -0.158
CTATCGTC | -0.0802
ACGAAAAC | 0.124
CTGGCTTC | -0.194

Sequence | PBM E-score
AAAGTCGT | -0.201
AAGCGGCT | 0.0723
ATCCCAAC | -0.239
CAAAACTG | -0.0453
AAGGACGT | -0.191
TATGGGGA | 0.0131
ACATGCCG | 0.117
TAGCGCTA | 0.0526
ATCGGTAC | 0.256
ATCATAGA | 0.0299
CGACTGCC | -0.12
ATTAAACG | 0.0351
ACAGCTCG | 0.0742
GACCTTCA | -0.0619
CTAGTAAA | 0.0494
ACAGGCGA | -0.069
AAGACTAA | -0.0141
ATGTCACA | -0.306
TGATGGAA | -0.238
AATGTGAG | -0.236
GTTTAAAA | -0.12
AGAATGCG | 0.0568
AGCAGCCG | 0.106
TCAGCCAA | -0.248
ATCTCGCA | -0.0225

Sequence | PBM E-score
ATGTTGGC | 0.0645
AAGTGACC | -0.0672
CGAAGGCA | -0.11
CCTTTGAC | -0.205
CTCTTGGC | -0.29
CGCGTCAC | -0.174
ATTTCAGG | -0.0459
GCCATTGA | -0.0815
CCAACTTA | 0.0877
GAAGCTGC | -0.0136
ACAGGACA | 0.0445
CGCACTGA | -0.0783
GCTAAGGA | -0.266
ACCCGCCG | 0.331
GGACACTA | 0.0258
ACACCCAA | -0.105
AGTATCGA | -0.048
AGGCATTG | -0.124
TACGAATA | -0.228
CGACAGCG | 0.179
GTACCTAC | -0.275
CTCACCGA | 0.157
ACCTGTTA | -0.105
ACTTTTGC | -0.0819
CTAGCGTA | -0.16

Sequence | PBM E-score
AGACTAGC | -0.356
AAGTTGCT | -0.0986
ACTACTCC | 0.24
GATGTATA | -0.0187
TCCTGGAA | -0.0863
CCCACACC | -0.135
GGTGTTCA | 0.00746
AGCAGCAT | -0.158
CGAGCTGA | 0.0746
AGGTGACC | -0.183
CTGACGGA | 0.172
ACACCAAG | -0.219
AATCGAGC | -0.0481
AACTTCTG | -0.205
CCGCGTAC | 0.125
ACCGACGC | 0.142
CCAAGGGA | -0.145
CACGGCGA | 0.0656
CCTTCACA | -0.275
GAAAGCAC | -0.0481
ATGAATCG | 0.0536
GCAGTGGA | -0.13
ACACTTAG | -0.0772
AGCGGGAC | 0.104
GATTACGA | 0.0843

Sequence | PBM E-score
GATGGAGC | -0.0558
GACTGCCC | -0.0849
AAGGCTAA | -0.0963
GTTTGTAA | -0.0808
CCCAGATC | -0.0435
CAAGAGTC | -0.16
ACATTCTG | -0.194
ATACCCGG | 0.38
GCATAACC | 0.131
ATGGAAAC | -0.0981
CACTGGGG | -0.126
CAGACAAA | -0.185
GCGTCGTA | 0.102
CCTGCAGA | 0.00922
AACCGCCC | 0.0175
CACAATGC | -0.0342
GGCACCCA | -0.186
CTACACAA | -0.191
ATAGCCGG | 0.397
CCTCCATA | -0.142
CGCTCCCA | -0.0634
CCTAACTA | -0.0142
CGAGTTAG | -0.0583
GACAGGGA | -0.17
AAAGCGTT | -0.234

Sequence | PBM E-score
CCCGTAGG | -0.158
AAGTTGCC | 0.0953
AAGGCTCA | -0.159
ATGGCCCG | 0.291
TACTCTAA | -0.0945
CATTCGTA | -0.185
AGGGGTCA | -0.246
ACATCATG | -0.165
GCTGACAC | -0.154
AGCGGGGG | 0.0616
CAGGCGAA | -0.193
AATAGTAA | -0.112
CGGCGAGC | 0.266
GCGATAAA | 0.258
ACTGGGAG | -0.0791
AGGCACTG | -0.128
CGAAGACA | 0.151
CCTGCAAG | -0.234
TGACGGAA | 0.241
AGAGCCCT | -0.291
AACGCGCT | 0.139
GCAAATTA | 0.163
CCACTGGC | -0.0966
CACGGCTA | 0.0584
CTATGACC | 0.0283

Sequence | PBM E-score
TCGGACCA | 0.381
AACTATCG | 0.159
GCGAGATA | 0.148
ACGAGAGC | -0.0925
ACTAGCTA | -0.162
AGGGCTAA | -0.2
AGTTACTA | -0.128
CGATCAAG | 0.0595
GACTAGGA | -0.104
CTGGCCTA | -0.168
GAGCAACA | -0.0395
AGTTCTTC | -0.111
ACTACACG | -0.185
ATCTTTTG | -0.072
CGCTTCAA | 0.0807
CCTTTCGA | 0.00181
GCGCTTTA | 0.133
GAAAGGCC | 0.22
GGGAACCA | -0.215
CTGGTACA | -0.27
GGGGACTA | -0.0608
CAAAACAG | -0.175
GATTCCCC | 0.0251
AACTGTTG | -0.252
GAAGTCGA | -0.0469

Sequence | PBM E-score
ATGGTTTG | 0.0601
ATAGCAGA | -0.21
AAGCCGCA | 0.116
AGCCAAGC | -0.173
GCTCTCAA | -0.196
TGCTCCCA | -0.192
GGGTGCCA | -0.0389
CTAGGTCC | 0.22
AGCCACCG | 0.179
GCGACAGA | 0.038
GAACACCC | 0.0895
AGGTAAAA | -0.117
TTGTACAA | -0.27
AATCTTTG | -0.203
GCAGCTGA | -0.0954
CTACAAAA | 0.0116
AGTAAAGA | 0.0858
AATTTATC | 0.255
ACCTGGAC | -0.164
CTAGATAC | 0.102
AATCGGAG | 0.359
CAAGACAA | -0.0427
AAAACTAT | 0.0628
CCTAGGCA | -0.136
ACGTTAGC | -0.0972

Sequence | PBM E-score
ATGTACTG | -0.148
CAGTAAAC | 0.00777
ACGGCTCC | 0.212
CTCAGGTA | -0.283
ATTAATAC | 0.0497
GAGGCCTC | -0.0587
ACAACGAC | -0.0123
CGGTACCA | 0.213
CTTTACGA | -0.162
ATATTAAA | 0.1
AAAAAGGA | -0.0699
TGTTAAAA | -0.143
CCTGAAGC | -0.298
ACGCAGGC | -0.051
AAGTCCTG | -0.0784
TAAGGTGA | -0.054
CGAAGTAG | 0.128
CTCGTAAG | -0.0457
GCATGTAC | -0.0721
